The structures appear in SMILES notation. Where a name gives a salt, the structure may show the parent alone. The list shows a part of the results. The data scatter; read single values as rough.

Data on 13 compounds can be found in the supplement of paper PMC11880418.
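Also: High-content imaging of ALDEFLUOR-stained cells with Hoechst-labelled nuclei in 384-well plates, triplicate wells, scored as Z-score against 0.1% DMSO vehicle, negative meaning fewer ALDHbr cells.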

In this experiment the test system is PANC1. Kind of experiment: ALDHbr (CSC) cell proportion score relative to DMSO vehicle (ratio to DMSO); breast (SUM159) / gastric (MKN45) / pancreatic (PANC1) / colon cancer lines; ALDHbr cells have high ALDH activity and are rich in cancer stem cells (CSC); higher = more CSC (ALDHbr) cells remaining. Particulars: 10 µM; 72 h.
As to `CN1C(=O)CC(c2ccccc2)C1=O` (stereo not drawn) [Phensuximide], the ALDHbr worked out at 1.06. Under `CCOC(=O)[N-]c1c[n+](N2CCOCC2)no1` [Molsidomine] stands 0.862; under `CCN[C@H]1CN(CCCOC)S(=O)(=O)c2sc(S(N)(=O)=O)cc21` [Brinzolamide], 0.875. Turning to `CCCCCCNC(=O)n1cc(F)c(=O)[nH]c1=O` [Carmofur], the ALDHbr was determined as 0.573. `CCOC(=O)O[C@]1(C(=O)COC(=O)CC)CC[C@H]2[C@@H]3CCC4=CC(=O)C=C[C@]4(C)[C@H]3[C@@H](O)C[C@@]21C` [Prednicarbate]: the ALDHbr worked out at 0.612.

In the case of `Cc1cccn2c(=O)c(-c3nnn[nH]3)cnc12` [Pemirolast potassium], the ALDHbr was 0.925. In the case of `CCn1cc(C(=O)O)c(=O)c2cc(F)c(N3CCN(C)CC3)cc21` [Pefloxacine], the ALDHbr is 0.785. On to `C[C@H](CCC(=O)O)[C@H]1CC[C@H]2[C@@H]3[C@H](O)C[C@@H]4C[C@H](O)CC[C@]4(C)[C@H]3CC[C@]12C` [Chenodiol], for which the ALDHbr turned out to be 0.826. As for `CCOC(=O)C(C)(C)Oc1ccc(Cl)cc1` [Clofibrate], the ALDHbr amounted to 0.902. Under `CC(CN1c2ccccc2Sc2ccccc21)N(C)C` (stereo not drawn) [Promethazine hydrochloride] stands 1.31; under `CCOC(=O)[C@H](CCc1ccccc1)N[C@@H](C)C(=O)N1CCC[C@H]1C(=O)O` [Enalapril maleate], 1.04; under `Cc1ncc([N+](=O)[O-])n1CC(C)O` (stereo not drawn) [Secnidazole], 0.86. Under `CCCCC(=O)N(Cc1ccc(-c2ccccc2-c2nnn[nH]2)cc1)[C@H](C(=O)O)C(C)C` [Valsartan] stands 0.948.
